Source: PubChem BioAssay AID588453 (National Center for Advancing Translational Sciences (NCATS), 2011)
Hit rate of the full screen: of about 390,000 compounds, about 4,000 (1%) were called active. Inconclusive means that the source gave no clear call. Such entries were picked first, then a sample of the others. The call rests on the fitted dose curve; in most records, active means well fitted inhibition curve with a large enough effect; inconclusive means small, poorly fitted or top-dose-only effect; inactive means no such curve, though single readings can be large or run the other way. Potencies of inconclusive entries are doubtful fits and often do not repeat.

target: Thioredoxin reductase 1, cytoplasmic (Rattus norvegicus) (UniProt O89049); assay: qHTS Assay for Inhibitors of Mammalian Selenoprotein Thioredoxin Reductase 1 (TrxR1): qHTS; details: recombinant rTrxR1, NADPH fluorescence consumption, selenite substrate; series mostly up to 114 µM; activity change, negative = inhibition: at the top concentration; further: nearly all actives have a fitted effect of over 65% in size
Procedure, shortened: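 Rat TrxR1 (90 nM in the dispensed reagent) was pre-reduced with 400 uM NADPH for 5 min at room temperature, then incubated with compound for 15 min. After 400 uM selenite was added, NADPH fluorescence (Ex 340/Em 450 nm) was followed for 8 min.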
On the % scale 0 is the no-effect control and ±100 the full control effect; potency means the concentration at half of the fitted maximal effect; tags describe the fitted curve by direction and shape.

Sequence of UniProt O89049 (O89049 whole entry, looked up): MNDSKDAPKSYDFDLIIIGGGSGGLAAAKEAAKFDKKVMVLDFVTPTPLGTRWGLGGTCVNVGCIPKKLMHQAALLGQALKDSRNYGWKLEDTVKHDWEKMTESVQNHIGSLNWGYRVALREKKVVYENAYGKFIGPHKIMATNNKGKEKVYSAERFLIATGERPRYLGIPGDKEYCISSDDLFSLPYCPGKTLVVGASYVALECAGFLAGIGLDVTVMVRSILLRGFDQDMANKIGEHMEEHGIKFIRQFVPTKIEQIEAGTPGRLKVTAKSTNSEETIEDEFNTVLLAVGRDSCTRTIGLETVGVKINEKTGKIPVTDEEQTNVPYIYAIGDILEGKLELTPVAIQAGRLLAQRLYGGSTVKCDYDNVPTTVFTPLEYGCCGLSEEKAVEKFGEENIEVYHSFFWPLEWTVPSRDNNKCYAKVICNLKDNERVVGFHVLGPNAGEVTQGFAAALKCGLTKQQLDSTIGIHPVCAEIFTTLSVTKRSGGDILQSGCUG

Structure (SMILES) | Potency | activity change, negative = inhibition
O=C(c1ccco1)N1CCN(C2CC(=O)N(c3ccc(C(F)(F)F)cc3)C2=O)CC1 (stereo not drawn) | inconclusive: 31.6 µM [inhibitor, full curve] | –
Cc1nc2c(-c3ccccc3)c(C)nn2c(C)c1CCC(=O)Nc1ccccc1F | – | inactive: 18.4%
COc1ccccc1NC(=S)Nc1ccccn1 | inconclusive: 28.2 µM [inhibitor, partial curve, poor fit] | –
CC(C)(C)c1nnc2sc(SCC(=O)c3ccc(Cl)cc3)nn2c1=O | inconclusive: 0.282 µM [inhibitor, full curve, poor fit] | –
O=C(Cc1ccccc1)N/N=C/c1cccn1-c1ccc([N+](=O)[O-])cc1 | inconclusive: 79.4 µM [inhibitor, partial curve, poor fit] | –
Cc1ccc(C)c(N2CCN(C(=O)c3ccc4nc(-c5ccco5)c(-c5ccco5)nc4c3)CC2)c1 | inconclusive: 3.98 µM [inhibitor, partial curve] | –
COc1ccccc1N1CCN(/N=C/c2cccc(O)c2)CC1 | – | inactive: 9.52%
CN(C)c1ccc(CNc2ccc3c(c2)ncn3C(C)(C)C)cc1 | inconclusive: 7.94 µM [inhibitor, partial curve, poor fit] | –
O=C(CCN1C(=O)/C(=C\c2ccccc2)SC1=S)NNC(=O)c1cccnc1 | inconclusive: 89.1 µM [inhibitor, partial curve, poor fit] | –
CC(=O)C(=Cc1ccc(C(=O)O)cc1)C(C)=O | inconclusive: 70.8 µM [inhibitor, partial curve] | –
COc1ccc(C(=O)CSc2nnc(CNc3ccc(C)cc3C)n2Cc2ccco2)cc1 | inconclusive: 79.4 µM [inhibitor, single point] | –
Cc1ccc(NS(=O)(=O)c2ccc3c(c2)[C@H]2C=CC[C@H]2[C@@H](c2ccc(F)cc2)N3)cc1C | inconclusive: 44.7 µM [inhibitor, partial curve] | –
COc1cc(C(=O)NC2CCN(CC(=O)Nc3cccc(C)c3C)CC2)cc(OC)c1OC | inconclusive: 70.8 µM [inhibitor, single point] | –
O=C(CSc1nc2cc(Cl)ccc2s1)c1ccco1 | inconclusive: 10 µM [inhibitor, full curve] | –
CCC1(C)NC(=O)N(CC(=O)Nc2sc3c(c2C(N)=O)CCC3)C1=O (stereo not drawn) | inconclusive: 25.1 µM [inhibitor, full curve, poor fit] | –
O=C(N/N=C/c1cccc(Oc2ccc([N+](=O)[O-])cc2[N+](=O)[O-])c1)c1cncc(Br)c1 | inconclusive: 3.55 µM [inhibitor, full curve, poor fit] | –
COc1ccc(C(=O)c2nccc3cc(OC)c(OC)cc23)cc1OC | – | inactive: 13.4%
COCCNC(=O)CCC1CCN(Cc2cccc(-c3ccc(C)o3)c2)CC1 | inconclusive: 12.6 µM [inhibitor, full curve, poor fit] | –
COc1ccc(C(=O)OCC(=O)Nc2ncc([N+](=O)[O-])s2)cc1OC | – | inactive: 8.81%
Cc1ccc(C(C2=C(O)CC(C)(C)CC2=O)C2C(=O)CC(C)(C)CC2=O)o1 (stereo not drawn) | inconclusive: 22.4 µM [inhibitor, single point] | –
COCCN(C(=O)CC1C(=O)NCCN1Cc1ccc(-c2ccccc2)cc1)C(C)C (stereo not drawn) | inconclusive: 79.4 µM [inhibitor, partial curve, poor fit] | –

Structure (SMILES) | Potency | activity change, negative = inhibition
Cc1c(NC2=C(Cl)C(=O)N(c3ccccc3Cl)C2=O)c(=O)n(-c2ccccc2)n1C | active: 20 µM | –
COc1ccc(CC(=O)N/N=C(\C)c2cccnc2)cc1 | inconclusive: 2.51 µM [inhibitor, partial curve, poor fit] | –
CCOc1ccc(NC(=O)C2CC(C)=C(C)CC2C(=O)O)cc1 (stereo not drawn) | inconclusive: 39.8 µM [inhibitor, single point] | –
O=C(CCNC(=O)C1CCN(S(=O)(=O)c2ccccc2)CC1)NCc1ccc(Cl)cc1 | inconclusive: 39.8 µM [inhibitor, single point] | –
S=c1[nH]nc(-c2ccccn2)n1/N=C/c1cccs1 | inconclusive: 79.4 µM [inhibitor, single point] | –
COc1cc(/C=C2\C(=O)N(c3ccccc3)N=C2C)ccc1Oc1ccc([N+](=O)[O-])cc1[N+](=O)[O-] | inconclusive: 31.6 µM [inhibitor, partial curve, poor fit] | –
CCC(C)(C)n1nnnc1C(c1ccc(O)c(OC)c1)N1CCN(c2nc3ccccc3s2)CC1 (stereo not drawn) | inconclusive: 2.24 µM [inhibitor, full curve, poor fit] | –
Cc1coc2cc3oc(=O)c(CC(=O)N4CCCCC4)c(C)c3cc12 | – | inactive: 7.31%
O=c1c2ccccc2[nH]c(=S)n1-c1cccc(S(=O)(=O)N2CCCC2)c1 | inconclusive: 22.4 µM [inhibitor, partial curve] | –
Nn1c(-c2cccc(Br)c2)n[nH]c1=S | inconclusive: 11.2 µM [inhibitor, full curve, poor fit] | –
Cc1cc(=O)oc2cc3c(cc12)OCCN3 | inconclusive: 63.1 µM [inhibitor, single point] | –
CCC(C)(C)n1nnnc1C(c1cc2ccc(OC)cc2[nH]c1=O)N1CCc2ccccc2C1 (stereo not drawn) | inconclusive: 56.2 µM [inhibitor, partial curve, poor fit] | –
COc1ccc(C2C(C(C)=O)=C(C)N=c3s/c(=C\c4cc(C)n(C)c4C)c(=O)n32)c(OC)c1 (stereo not drawn) | inconclusive: 56.2 µM [inhibitor, single point] | –
CC1(OC(=O)C2CCCC2)C(=O)C=C2C=C(c3ccc(C#N)cc3)OC=C2C1=O (stereo not drawn) | inconclusive: 79.4 µM [inhibitor, single point] | –
CN=c1scc(C)n1/N=C/c1ccc(O)c(O)c1O | inconclusive: 25.1 µM [inhibitor, full curve, poor fit] | –
O=c1c(-c2ccc(Br)cc2)[n+]([O-])c2ccccc2n1OCc1ccccc1 | – | inactive: 16.6%
Cc1ccc2c(=O)cc(C(=O)N(Cc3ccccc3Cl)C3CCS(=O)(=O)C3)oc2c1 (stereo not drawn) | – | inactive: 5.28%
COc1ccc(C2CC(c3cccs3)=NN2C(=O)CCl)cc1OC (stereo not drawn) | active: 7.94 µM | –
Cc1cc(/C=C(\C#N)C(=O)NC2CCCCCC2)c(C)n1C | inconclusive: 15.8 µM [inhibitor, full curve] | –
O=C(Nc1n[nH]c(=S)s1)c1ccco1 | inconclusive: 79.4 µM [inhibitor, partial curve, poor fit] | –
O=C1CCCC(=NNC(=O)c2cc3ccccc3cc2O)C1 | inconclusive: 89.1 µM [inhibitor, partial curve, poor fit] | –

Structure (SMILES) | Potency | activity change, negative = inhibition
CCOc1cc(/C=N/Nc2nc(Nc3ccccc3)nc(N3CCCCC3)n2)ccc1OCC(=O)O | – | inactive: -12.2%
Cc1ccc(C(C)C)c(OCC(=O)NCC2(N3CCOCC3)CCCCC2)c1 | – | inactive: 10.9%
O=C1N=C(N2CCOCC2)SC1=Cc1ccco1 | inconclusive: 63.1 µM [inhibitor, partial curve, poor fit] | –
O=C(N/C(=C/c1ccco1)C(=O)N1CCCCCC1)c1cccs1 | inconclusive: 35.5 µM [inhibitor, partial curve, poor fit] | –
O=C1/C(=C\Nc2ccccc2)CCN1c1ncccn1 | inconclusive: 50.1 µM [inhibitor, partial curve] | –
Cc1ccc(/C=C/C(=O)N2CCCC(C(N)=O)C2)o1 (stereo not drawn) | inconclusive: 70.8 µM [inhibitor, partial curve, poor fit] | –
COc1ccc(NC(=O)CCSc2ccc(C)cc2)cc1S(=O)(=O)Nc1ccccc1Cl | – | inactive: -8.99%
Cc1ccc(C(=O)NC(=S)Nc2ccccc2C(F)(F)F)cc1 | inconclusive: 79.4 µM [inhibitor, single point] | –
CCCCN(C)C(=O)c1cn(CC)c2ccc(S(=O)(=O)N(C)C)cc2c1=O | inconclusive: 79.4 µM [inhibitor, single point] | –
CN(C)S(=O)(=O)c1ccc(C(=O)NCCN2C(=O)S/C(=C\c3cccnc3)C2=O)cc1 | – | inactive: 20.3% [at 57.1 µM]
O=C(Nc1ccc(C(=O)N2CCN(c3ccc(Cl)cc3)CC2)cc1)C1=CSCCO1 | – | inactive: 19.5%
O=C(Nc1ccc(Cn2cccn2)cc1)c1ccc(COc2ccccc2Br)cc1 | – | inactive: -21.3%
CCc1ccc(OCC(=O)Nc2nnc(-c3ccco3)s2)cc1 | inconclusive: 89.1 µM [inhibitor, partial curve, poor fit] | –
C[n+]1ccnc2ccccc21 | inconclusive: 3.55 µM [inhibitor, full curve, poor fit] | –
COC(=O)NC(NC(=S)Nc1ccc([N+](=O)[O-])cc1)C(Cl)(Cl)Cl (stereo not drawn) | inconclusive: 17.8 µM [inhibitor, full curve] | –
Cc1cccc(NC(=O)CSc2nc3ccc(NC(=O)c4cccs4)cc3s2)c1 | inconclusive: 89.1 µM [inhibitor, single point] | –
CCCOc1ccc(N2C(=O)CC(NCc3ccncc3)C2=O)cc1 (stereo not drawn) | inconclusive: 25.1 µM [inhibitor, single point] | –
Cc1ccc(/C=C/C(=O)OCC(=O)Nc2ccc3[nH]c(=O)[nH]c3c2)o1 | inconclusive: 63.1 µM [inhibitor, single point] | –
CCc1cc(=O)oc2cc(OC(C)=O)cc(OC(C)=O)c12 | inconclusive: 70.8 µM [inhibitor, single point] | –
CC(=O)Nc1ccc(S(=O)(=O)Nc2nc3ccccc3nc2Nc2ccccc2)cc1 | inconclusive: 79.4 µM [inhibitor, single point] | –
COc1ccccc1N1CCN(S(=O)(=O)c2c[nH]c(=O)[nH]c2=O)CC1 | inconclusive: 50.1 µM [inhibitor, partial curve] | –
